Test results as given in PubChem BioAssay AID894 (National Center for Advancing Translational Sciences (NCATS), 2007).
Several values for one entry are separate records, joined by “and”; a condition that tells them apart may be missing. Equal values may be shown once. The campaign covered roughly 150,000 compounds. About 6,500 (4.3%) were called active. The shares of active, inactive and inconclusive entries below differ from those in the screen. The call rests on the fitted dose curve; in most records, active means well fitted inhibition curve with a large enough effect (not every such curve was filed as active); inconclusive means small, poorly fitted or top-dose-only effect, or another doubt; inactive means no such curve, though single readings can be large or run the other way. No potency is given beside an inconclusive call; the fits are too rough.
On the % scale 0 is the no-effect control and ±100 the full control effect; potency means the concentration at half of the fitted maximal effect; tags describe the fitted curve by direction and shape.

Each compound was assayed against 15-hydroxyprostaglandin dehydrogenase [NAD(+)] (Homo sapiens) (UniProt P15428) (assay: qHTS Assay for Inhibitors of HPGD (15-Hydroxyprostaglandin Dehydrogenase)). Conditions: purified HPGD, NADH fluorescence kinetic, PGE2 substrate; activity change, negative = inhibition: active compounds read low.
Chain of UniProt P15428 (P15428 whole entry, looked up): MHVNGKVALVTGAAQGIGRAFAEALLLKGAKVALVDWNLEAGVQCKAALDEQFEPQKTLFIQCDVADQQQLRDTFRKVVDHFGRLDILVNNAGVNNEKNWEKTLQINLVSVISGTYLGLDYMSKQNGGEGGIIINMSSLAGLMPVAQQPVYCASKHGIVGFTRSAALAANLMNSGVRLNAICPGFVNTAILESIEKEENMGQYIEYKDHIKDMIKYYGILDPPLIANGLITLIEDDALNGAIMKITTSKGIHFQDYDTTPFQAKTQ
Outline: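 20 nM HPGD preincubated 15 min at room temperature with compound in 50 mM Tris-HCl pH 8, 0.01% Tween 20. Started with 1 mM NAD+ and 30 uM prostaglandin E2; NADH fluorescence (360/450 nm) read 5 times over 30-s intervals, last minus first.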
For `O=C(c1ccco1)[C@@H]1[C@@H]2C(=O)N(c3ccc(Br)cc3)C(=O)[C@@H]2C2c3ccccc3C=CN21` (stereo not given in full), the Potency was inconclusive [inhibitor, single point].
For `CC(C)Cn1c(SCC(=O)c2ccc(Cl)s2)nnc1-c1ccco1`, the Potency was inconclusive [inhibitor, partial curve].
With `Cc1nc(C)c(C(=O)N/N=C/c2c[nH]c3ccccc23)s1` the Potency was inconclusive [inhibitor, single point].
For `CC(C)(C)OC(=O)NCCc1nnc(S(=O)(=O)Cc2ccc(Cl)cc2Cl)o1`, the Potency was active: 2.51 µM.
With `CCC(C)NCC(O)COCc1ccc(Cl)cc1` (stereo not given) the Potency was inconclusive [inhibitor, single point].
In the case of `CCOc1nc(-c2ccccc2)ccc1-c1noc(COC)n1`, the Potency was inconclusive [inhibitor, partial curve].
`O=C1CSc2nc3ccccc3n21` was tested, and the Potency was inconclusive [inhibitor, partial curve].
With `CCOC(=O)c1cnc(SC2CCc3ccccc3C2=O)nc1N` (stereo not given) the Potency was active: 28.2 µM.
`Cc1ccc(-c2n[nH]c(=S)n2/N=C/c2cc3c(cc2[N+](=O)[O-])OCO3)cc1` was tested, and the Potency was active: 1.58 µM.
`CCCc1cc(=O)[nH]c(SCC(=O)c2cc(C)n(C(C)COC)c2C)n1` (stereo not given) was tested, and the activity change, negative = inhibition was inactive: -1.19%.
`O=c1[nH]c(N/N=C/c2ccccc2)nc2ccccc12` was tested, and the Potency was inconclusive [inhibitor, single point].
`CCN(CC)c1ccc(C(=O)OCC(=O)Nc2ccccc2-c2ccccc2)cc1` was tested, and the Potency was inconclusive [inhibitor, partial curve].
For `N#Cc1c(NC(=O)c2ccccc2)sc2c1CCCCC2`, the Potency was inconclusive [inhibitor, partial curve].
With `O=C(CC1C(=O)NC2CCCCC2N1C(=O)c1ccc(F)cc1)Nc1ccccc1` (stereo not given) the activity change, negative = inhibition was inactive: 2.91%.
For `CCCCN1CCc2c([nH]c3ccc(C)cc23)C1=O`, the Potency was inconclusive [inhibitor, partial curve].
In the case of `CCn1c(/C=C/Nc2ccccc2)[n+](CC)c2ccc(Cl)cc21`, the activity change, negative = inhibition was inactive: -5.94%.
For `O=C(Nc1cccc(-c2cc3ccccc3oc2=O)c1)c1ccc(Br)o1`, the Potency was inconclusive [inhibitor, single point].
With `CC1=C(C)CC2C(=O)N(c3cccc4ccccc34)C(=O)C2C1` (stereo not given) the Potency was active: 25.1 µM.
In the case of `CCOC(=O)c1c(NC(=O)C(=O)N/N=C/c2ccccc2OC)sc2c1CCCCC2`, the Potency was inconclusive [inhibitor, partial curve].
In the case of `CCCCCC(=O)N(O)C1CC(=O)N(c2ccccc2)C1=O` (stereo not given), the Potency was active: 15.8 µM.
`c1nc2sc3c(c2c2nnnn12)CCCC3` was tested, and the Potency was inconclusive [inhibitor, single point].
In the case of `Cc1ccc(-c2csc(=S)n2CC(=O)OCC(=O)NCc2ccc(F)cc2)cc1`, the Potency was active: 15.8 µM.
With `CC(=O)Nc1ccc(/C=N/Nc2nc3ccccc3[nH]2)cc1` the Potency was inconclusive [inhibitor, partial curve].
`CC(C)Cc1cc(C(=O)NCCc2ccccc2)no1` was tested, and the activity change, negative = inhibition was inactive: -20.6%.
In the case of `Cc1cc(N2CCCC2=O)c(N)cc1N`, the activity change, negative = inhibition was inactive: -9.36%.
In the case of `COc1ccc(/C=C/c2nnc(NC(=O)COc3cccc(C)c3)s2)cc1`, the Potency was inconclusive [inhibitor, partial curve].
With `N#CCCN1CCN(C2=NC(=O)C(=C3CCCCC3)S2)CC1` the Potency was inconclusive [inhibitor, partial curve, poor fit].
`N#CCCN1CCN(C(=S)c2ccc(-c3cc(Cl)ccc3Cl)o2)CC1` was tested, and the activity change, negative = inhibition was inactive: -13.8%.
With `CC(C)C(=O)Nc1cccc(-c2nc3ccccc3c(=O)o2)c1` the Potency was inconclusive [inhibitor, single point].
`COc1cccc(NC(=O)c2ccc(NC(=O)C(C)(C)C)cc2)c1` was tested, and the activity change, negative = inhibition was inactive: -5.53%.
`O=C(CCl)Nc1nc(-c2ccco2)c(-c2ccco2)s1` was tested, and the Potency was inconclusive [inhibitor, partial curve].
In the case of `COc1ccc(CNC(=O)c2cccc(C)c2[N+](=O)[O-])cc1`, the Potency was inconclusive [inhibitor, single point].
For `c1ccc(-c2ccc(-c3ccc(C4=NCCN4)cc3)o2)cc1`, the Potency was inconclusive [inhibitor, single point].
For `CCn1c(N2CCN(CC(=O)c3c[nH]c4ccccc34)CC2)nc2c1c(=O)[nH]c(=O)n2C`, the activity change, negative = inhibition was inactive: -12%.
For `CC(=O)Nc1ccc(C(=O)OCC(=O)Nc2ccccc2Sc2ccccc2)cc1`, the Potency was inconclusive [inhibitor, single point].
With `CN(C)c1ccc(-c2ccncc2)cc1` the activity change, negative = inhibition was inactive: -7.22%.
In the case of `C[C@@H]1C(c2ccccc2)=NN(c2ccc(Br)cc2)[C@H]1C(=O)N1CCOC1=O`, the Potency was inconclusive [inhibitor, partial curve].
In the case of `CC1(C)Cc2ccccc2-c2nc(NCCO)n(-c3ccccc3)c(=O)c21`, the Potency was inconclusive [inhibitor, partial curve].
`COc1ccc(/C=N/NC(=O)c2ccc(COc3ccccc3Cl)o2)c(OC)c1C` was tested, and the Potency was inconclusive [inhibitor, partial curve].
With `COc1ccc(-c2cc(C(F)F)n3ncc(C(=O)NCCCN4CCCC4=O)c3n2)cc1` the Potency was inconclusive [inhibitor, partial curve].
With `O=C(Nc1cc(C(F)(F)F)ccc1N1CCCCC1)c1ccco1` the Potency was inconclusive [inhibitor, partial curve].
With `COC(=O)[C@@]1(Cc2ccc(OC)cc2)[C@H]2c3cc(C(=O)N(C)C)n(Cc4ccc(OC(F)(F)F)cc4)c3C[C@H]2CN1C(=O)c1ccccc1` the activity change, negative = inhibition was inactive: -9.02% and inactive: -18.2%.
`Cc1cc(OCC(=O)C(C)(C)C)c2c(C)c(C)c(=O)oc2c1` was tested, and the activity change, negative = inhibition was inactive: 9.98%.
`CCOc1ccc(C2NC(=O)C(C#N)=C(S)N2c2ccc(C)cc2)cc1OC` (stereo not given) was tested, and the activity change, negative = inhibition was inactive: -3.13%.
With `Cc1cc(C)n(Cc2ccc(Cl)cc2Cl)c(=O)c1S(=O)(=O)c1ccccc1` the Potency was inconclusive [inhibitor, partial curve].
